Measured values: publication PMC7247158
Results are given in words; binding and its absence hold for the method and conditions named. Binding seen in cells or lysates may run through a third protein. Some entries that bind do so weakly or less than the wild type. Each block holds one substance with its values, some of them ahead of it.

Chains of the proteins cited; added tags and fusions are not shown.
UniProt Q13546: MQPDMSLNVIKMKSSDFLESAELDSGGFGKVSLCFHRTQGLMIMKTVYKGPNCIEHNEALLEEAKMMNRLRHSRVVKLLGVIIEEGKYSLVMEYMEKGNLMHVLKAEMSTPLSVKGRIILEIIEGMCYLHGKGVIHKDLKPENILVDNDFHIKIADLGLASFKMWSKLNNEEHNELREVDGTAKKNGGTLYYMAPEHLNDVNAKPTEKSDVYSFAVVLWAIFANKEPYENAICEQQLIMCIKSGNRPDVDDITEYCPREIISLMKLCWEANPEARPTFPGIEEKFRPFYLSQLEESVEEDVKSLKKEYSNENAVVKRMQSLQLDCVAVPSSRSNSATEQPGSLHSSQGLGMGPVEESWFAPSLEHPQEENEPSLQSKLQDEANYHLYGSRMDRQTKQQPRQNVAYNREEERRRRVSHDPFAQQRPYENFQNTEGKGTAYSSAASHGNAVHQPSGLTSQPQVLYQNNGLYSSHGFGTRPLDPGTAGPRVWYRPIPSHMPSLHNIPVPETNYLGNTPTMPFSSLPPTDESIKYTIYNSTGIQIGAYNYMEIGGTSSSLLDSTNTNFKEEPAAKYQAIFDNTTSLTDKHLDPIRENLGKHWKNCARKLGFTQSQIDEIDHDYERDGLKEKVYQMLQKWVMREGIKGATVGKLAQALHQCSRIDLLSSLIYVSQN

Assays:
[1] = molecular target: Flag-p62 (p62/sequestosome-1) (human) (UniProt Q13501); test: co-IP; HA-USP20 and Flag-p62 co-transfected into HeLa cells; lysates (1% Triton X-100, 50 mM Tris-HCl pH 7.5, 150 mM NaCl, 10% glycerol) immunoprecipitated with anti-Flag antibody and G agarose beads at 4 °C for 15 h, immunoblotted with anti-HA
[2] = molecular target: T1, endogenous PKCζ (atypical protein kinase C zeta) (human (endogenous in HeLa)) (UniProt Q05513); test: co-IP; endogenous proteins, control (siCON) HeLa cells treated with 10 ng/mL TNFα for the indicated times; immunoprecipitated with anti-PKCζ antibody, immunoblotted with the indicated antibodies; anti-IgG as negative control
T1 sequence: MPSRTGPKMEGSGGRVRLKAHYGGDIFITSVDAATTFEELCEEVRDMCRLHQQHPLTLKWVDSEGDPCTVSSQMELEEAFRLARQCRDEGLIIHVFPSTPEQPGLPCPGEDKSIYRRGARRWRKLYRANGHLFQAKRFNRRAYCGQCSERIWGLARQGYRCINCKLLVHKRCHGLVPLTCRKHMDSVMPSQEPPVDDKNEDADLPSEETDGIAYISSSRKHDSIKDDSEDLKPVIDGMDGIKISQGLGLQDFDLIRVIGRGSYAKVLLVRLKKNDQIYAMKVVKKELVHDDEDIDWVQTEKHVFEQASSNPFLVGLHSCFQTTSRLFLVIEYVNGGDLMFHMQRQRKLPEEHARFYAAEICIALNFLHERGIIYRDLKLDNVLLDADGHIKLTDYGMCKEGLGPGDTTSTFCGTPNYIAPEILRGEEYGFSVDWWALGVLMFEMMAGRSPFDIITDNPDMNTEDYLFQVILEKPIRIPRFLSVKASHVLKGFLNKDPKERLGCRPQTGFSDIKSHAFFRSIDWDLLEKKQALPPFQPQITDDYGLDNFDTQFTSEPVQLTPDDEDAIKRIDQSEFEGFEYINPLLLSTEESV

[3] = molecular target: T1, endogenous PKCζ (atypical protein kinase C zeta) (human (endogenous in HeLa)); test: condition: only USP20-depleted HeLa cells (siUSP20); co-IP; endogenous proteins, USP20-depleted (siUSP20) HeLa cells treated with 10 ng/mL TNFα for the indicated times; immunoprecipitated with anti-PKCζ antibody, immunoblotted with the indicated antibodies
[4] = molecular target: endogenous p62 (human (endogenous in HeLa)) (UniProt Q13501); test: co-IP; endogenous proteins, HeLa cells treated with 10 ng/mL TNFα, 5 min; immunoprecipitated with anti-p62 antibody, immunoblotted for USP20; anti-IgG as negative control
[5] = molecular target: endogenous p62 (human (endogenous in HeLa)) (UniProt Q13501); test: condition: only later than 5 min after TNFα treatment; co-IP; endogenous proteins, HeLa cells treated with 10 ng/mL TNFα, times later than 5 min; immunoprecipitated with anti-p62 antibody, immunoblotted for USP20

binding [1]: binds
Substance: HA-USP20 (ubiquitin-specific protease 20, wild type) (from UniProt Q9Y2K6 1-914) (enzyme)

binding [2]: binds
binding [3]: no binding
Substance: endogenous RIPK1 (receptor interacting protein kinase-1) (from UniProt Q13546 1-671) (enzyme)

binding [4]: binds
binding [5]: no binding
Substance: endogenous USP20 (from UniProt Q9Y2K6 1-914) (enzyme)
